This passage reports binding results from paper PMC3169550.

Chains of the proteins cited; added tags and fusions are not shown.
UniProt A2A9T0: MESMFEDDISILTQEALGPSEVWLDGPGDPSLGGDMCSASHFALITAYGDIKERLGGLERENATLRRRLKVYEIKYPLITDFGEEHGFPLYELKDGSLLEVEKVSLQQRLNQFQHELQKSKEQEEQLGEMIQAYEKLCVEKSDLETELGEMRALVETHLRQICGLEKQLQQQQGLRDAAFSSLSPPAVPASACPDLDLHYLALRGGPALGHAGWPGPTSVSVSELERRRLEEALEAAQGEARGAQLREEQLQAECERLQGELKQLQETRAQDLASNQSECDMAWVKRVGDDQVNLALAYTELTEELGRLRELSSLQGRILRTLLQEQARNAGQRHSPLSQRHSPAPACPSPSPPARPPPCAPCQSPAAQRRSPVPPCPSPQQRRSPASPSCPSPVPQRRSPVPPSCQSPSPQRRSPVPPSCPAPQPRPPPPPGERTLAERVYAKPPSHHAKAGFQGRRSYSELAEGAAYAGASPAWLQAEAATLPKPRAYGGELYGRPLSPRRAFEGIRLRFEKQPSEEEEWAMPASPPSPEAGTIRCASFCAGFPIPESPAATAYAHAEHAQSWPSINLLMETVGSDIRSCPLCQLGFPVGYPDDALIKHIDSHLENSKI
UniProt Q9QYP6: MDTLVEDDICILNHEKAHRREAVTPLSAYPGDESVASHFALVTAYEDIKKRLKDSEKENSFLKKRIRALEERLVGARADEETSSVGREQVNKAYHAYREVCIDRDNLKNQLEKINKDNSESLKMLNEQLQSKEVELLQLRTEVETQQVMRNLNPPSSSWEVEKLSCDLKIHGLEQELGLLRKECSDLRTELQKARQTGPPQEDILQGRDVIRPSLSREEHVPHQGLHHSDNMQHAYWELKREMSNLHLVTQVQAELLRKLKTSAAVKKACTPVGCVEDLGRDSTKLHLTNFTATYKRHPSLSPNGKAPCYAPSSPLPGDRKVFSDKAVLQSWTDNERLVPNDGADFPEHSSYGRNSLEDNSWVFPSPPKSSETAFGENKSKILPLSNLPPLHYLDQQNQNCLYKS

Assay [1] concerns the target T1, Myc-tagged TBK1 wt (murine) (UniProt Q9WUN2).
T1 sequence: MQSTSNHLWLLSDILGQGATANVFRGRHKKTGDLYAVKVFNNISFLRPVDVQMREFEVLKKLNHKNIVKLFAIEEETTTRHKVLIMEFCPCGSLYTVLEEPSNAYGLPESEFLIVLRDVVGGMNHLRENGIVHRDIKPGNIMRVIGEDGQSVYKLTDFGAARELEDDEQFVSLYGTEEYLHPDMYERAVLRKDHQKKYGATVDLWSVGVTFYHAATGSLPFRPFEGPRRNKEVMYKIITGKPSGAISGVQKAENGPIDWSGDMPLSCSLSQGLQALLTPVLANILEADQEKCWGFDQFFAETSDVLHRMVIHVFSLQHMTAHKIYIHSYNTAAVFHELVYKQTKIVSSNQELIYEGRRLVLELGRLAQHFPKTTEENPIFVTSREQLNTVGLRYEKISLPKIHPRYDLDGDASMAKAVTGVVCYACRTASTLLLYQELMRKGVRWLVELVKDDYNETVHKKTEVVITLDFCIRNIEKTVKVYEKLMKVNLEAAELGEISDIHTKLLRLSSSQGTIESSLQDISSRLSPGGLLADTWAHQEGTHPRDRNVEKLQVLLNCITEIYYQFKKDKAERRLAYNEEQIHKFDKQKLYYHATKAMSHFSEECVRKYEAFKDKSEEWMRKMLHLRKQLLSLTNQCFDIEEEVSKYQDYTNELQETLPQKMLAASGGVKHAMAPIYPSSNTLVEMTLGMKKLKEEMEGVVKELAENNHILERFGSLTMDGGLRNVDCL
The experiment in a line: co-IP; competition: proteins expressed one by one in HEK293 cells, cell extracts mixed in stated volumes (one adaptor constant, the other increasing), anti-Myc agarose, immunoblotting with anti-Myc and anti-V5. For orientation: In western blotting, separated proteins are transferred to a membrane and probed.

In assay [2] the target is T1, Myc-tagged TBK1 wt (murine). Kind of assay: co-IP; Myc-tagged TBK1 constructs coexpressed with V5-tagged adaptors in HEK293 cells; Frackelton buffer (10 mM Tris/HCl pH 7.5, 50 mM NaCl, 1% Triton X-100); anti-Myc agarose or anti-V5 agarose, 2 h at 4°C; immunoblotting with anti-Myc and anti-V5.
Assay [3] deals with T2, Myc-tagged TBK1 L693A (murine) (UniProt Q9WUN2).
T2 sequence: T1 sequence with L693A
Described as above.

Assay [4] concerns the target T3, C-terminus of TBK1 (amino acids 621–729) fused to GFP (murine) (UniProt Q9WUN2).
T3 sequence: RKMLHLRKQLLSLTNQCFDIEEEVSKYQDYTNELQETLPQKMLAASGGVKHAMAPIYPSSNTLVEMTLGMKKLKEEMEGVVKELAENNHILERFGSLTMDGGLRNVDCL
Described as above.

Assay [5] addresses T4, Myc-tagged TBK1 E706K (murine) (UniProt Q9WUN2).
T4 sequence: T1 sequence with E706K
Described as above.

Changes are numbered by the printed parent chain. No constants are given. Whether binding was seen depends on the method and setting. Binding seen in cells or lysates may run through a third protein. Some binding calls cover weakened binding; strength is not graded here. Sequences can lack the tags named with a protein.

With “V5-tagged Sintbad (from UniProt A2A9T0 1-611)”, the binding result in assay [1], in assay [2], in assay [3], in assay [4] and in assay [5] was “binds” each time.

Regarding “V5-tagged NAP1 (from UniProt Q9QYP6 1-405)”, the binding entry in assay [1], in assay [2], in assay [3], in assay [4] and in assay [5] was “binds” each time.

B1: V5-tagged TANK (protein, UniProt P70347 1-448)
chain: MSLKRHSLRRNACHLETRAGIPTILYSDATGQRGMDKNIGEQLNRAYEAFRQACMDRDSAVRELQQKQTENYEQRIREQQEQLSFQQNLIDRLKSQLLLVDSSRDNSYGYVPLLEDSDRRKNNLTLDEPHDKVKLGTLRDKQSKVRRQEVSSGKESAKGLNIPLHHERDNIEKTFWDLKEEFHRICLLAKAQKDHLSKLNIPDIATDTQCSVPIQCTDKTEKQEALFKPQAKDDINRGMSCVTAVTPRGLGRDEEDTSFESLSKFNVKFPPMDNDSIFLHSTPEAPSILAPATPETVCQDRFNMEVRDNPGNFVKTEETLFEIQGIDPITSAIQNLKTTDKTNPSNLRATCLPAGDHNVFYVNTFPLQDPPDAPFPSLDSPGKAVRGPQQPFWKPFLNQDTDLVVPSDSDSELLKPLVCEFCQELFPPSITSRGDFLRHLNTHFNGET
For B1, the binding entry is recorded as “binds” in assay [1]; “binds” in assay [2]; “no binding” in assay [3]; “binds” in assay [4]; “binds” in assay [5].
